The results in this text go back to the supplement of paper PMC3334620.

Whole data set: some 33,000 sequences, median “E-score (-0.5 to 0.5)” near -0.012, cut for the highest 2% near 0.27. The list shows a part of the results.

This assay concerns the target T1, Vhr1 (UniProt P40522).
T1 sequence: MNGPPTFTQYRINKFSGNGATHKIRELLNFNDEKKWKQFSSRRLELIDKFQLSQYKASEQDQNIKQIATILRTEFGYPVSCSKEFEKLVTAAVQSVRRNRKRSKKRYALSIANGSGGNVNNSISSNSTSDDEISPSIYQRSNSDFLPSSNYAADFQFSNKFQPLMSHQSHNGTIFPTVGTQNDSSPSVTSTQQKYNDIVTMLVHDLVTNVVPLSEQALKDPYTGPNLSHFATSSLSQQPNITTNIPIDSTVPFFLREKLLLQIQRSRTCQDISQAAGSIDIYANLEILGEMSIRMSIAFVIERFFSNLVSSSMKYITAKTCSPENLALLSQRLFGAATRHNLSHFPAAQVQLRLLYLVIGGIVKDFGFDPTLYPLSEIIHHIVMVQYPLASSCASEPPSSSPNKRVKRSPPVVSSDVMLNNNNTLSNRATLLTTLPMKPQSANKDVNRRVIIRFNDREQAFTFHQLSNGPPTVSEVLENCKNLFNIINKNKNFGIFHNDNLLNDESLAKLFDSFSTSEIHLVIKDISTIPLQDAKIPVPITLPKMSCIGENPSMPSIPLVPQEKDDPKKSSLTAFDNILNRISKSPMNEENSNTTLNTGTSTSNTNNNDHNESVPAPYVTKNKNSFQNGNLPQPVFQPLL
The experiment in a line: PBM E-score (8-mer binding enrichment) (E-score (-0.5 to 0.5)); higher = stronger / more preferred TF binding; most listed sequences are background and not binding sites. The following applies: protein concentration: 200 nM; construct: GST-full length. As to the method: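 Universal 'all 10-mer' protein binding microarrays (Agilent AMADID 015681) probed with GST-tagged S. cerevisiae TFs (full-length or DBD) made by in vitro transcription/translation (PURExpress), about 100-200 nM. Bound TF was detected with fluorescent anti-GST. Each ungapped 8-mer (which stands for itself and its reverse complement) is scored by the PBM enrichment score (E-score), a modified Wilcoxon-Mann-Whitney statistic from -0.5 to +0.5, computed with the Universal PBM Analysis Suite. Scale: above 0.35 generally sequence-specific binding.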
For CTGGGTTA, the “PBM E-score” value was 0.225.
In the case of ACTGACTC, the “PBM E-score” value came to 0.421.
With GATCCATA the figure was 0.21; with ATAAGAAT, 0.00682; with ATACGACA, 0.168.
With ACATTACA the figure was 0.128; with ACCAGTAA, 0.107.
Regarding AAAGGCCA, the “PBM E-score” value is -0.0706.
In the case of AGCAACGC, the “PBM E-score” value is -0.117.
For the sequence CATAGAGC, the “PBM E-score” value was -0.0922.
As to AATGCACC, the “PBM E-score” value is -0.0135.
With CTGGAAGC, the “PBM E-score” value is -0.235.
For AAAGCTAT, the “PBM E-score” value is -0.0772.
Take AATTAACC: the “PBM E-score” value amounted to 0.117.
For AGGGTGTG, the “PBM E-score” value was 0.0995.
Take GAGTCGGC: the “PBM E-score” value was found to be 0.411.
CGTCAGAA: the “PBM E-score” value was -0.284.
Consider CTCTTTCA, for which the “PBM E-score” value was -0.147.
For the sequence ACCTTCGT, the “PBM E-score” value was -0.216.
With AGTGGCGC the figure was 0.139; with GCGTACCA, -0.0231.
Take GGCAGACC: the “PBM E-score” value is -0.198.
Turning to ACGTTAGT, the “PBM E-score” value was -0.048.
For the sequence CCCCTTCA, the “PBM E-score” value is -0.262.
Take TCAGCACA: the “PBM E-score” value was 0.109.
Then ACGGATGA, with 0.141.
As for ATCCAGAT, the “PBM E-score” value was determined as 0.1.
With GTTCGGAA the figure was -0.0839; with GGCTAGGA, -0.113; with AATCCGCC, -0.0623.
With AAATGCTT the figure was -0.229.
With CCGATCGG the figure was 0.0208; with CTCCATGC, 0.0806; with ACCAACAG, 0.046.
Regarding ACCCCGCC, the “PBM E-score” value was found to be 0.199.
CCCGCCCA: the “PBM E-score” value was 0.301.
With CAATCTGA, the “PBM E-score” value was determined as 0.00363.
As to CAGCTCAC, the “PBM E-score” value was -0.117.
As for CTTTGTCC, the “PBM E-score” value is -0.111.
With ACTAGCCT the figure was 0.00039; with ACCAGGAA, -0.173.
For the sequence ACACCCCT, the “PBM E-score” value was found to be 0.0117.
Regarding AACCTGGT, the “PBM E-score” value was found to be 0.199.
Regarding ATCGTTTC, the “PBM E-score” value is -0.0595.
In the case of GCAAAGCC, the “PBM E-score” value is -0.289.
Turning to AAAACTAG, the “PBM E-score” value was -0.0558.
With CCAGAACA, the “PBM E-score” value is 0.0736.
On to CGGTCTAA, for which the “PBM E-score” value was -0.209.
Then CGGGCGTA, with -0.126.
As to TCTTGACA, the “PBM E-score” value is 0.0152.
For ACTAAGTG, the “PBM E-score” value amounted to 0.118.
For GAGGAGCA, the “PBM E-score” value is -0.072.
For the sequence GAAGTATA, the “PBM E-score” value turned out to be 0.0746.
As to GAGCATGA, the “PBM E-score” value came out at 0.0876.
With CCTGCACC, the “PBM E-score” value was -0.175.
For the sequence CATTATCC, the “PBM E-score” value was found to be 0.193.
On to CACGGTAC, for which the “PBM E-score” value was 0.129.
On to GCGTTCTA, for which the “PBM E-score” value is -0.129.
For the sequence AAAGATGG, the “PBM E-score” value was -0.242.
Then CACAACTG, with 0.0157.
With GGCAGCAC the figure was -0.0212; with CTTGGAAC, -0.0826; with CAGATCCG, 0.0371.
With AAATAGCC the figure was -0.0966.
Turning to GTTCTGAA, the “PBM E-score” value is -0.0921.
With CGGAGCGC the figure was 0.0627.
Turning to TAGGCTCA, the “PBM E-score” value is -0.146.
For CAGCACCA, the “PBM E-score” value was -0.0244.
Then GGTCCGGA, with 0.142.
As to CGATGTTC, the “PBM E-score” value is 0.142.
For CTATACAA, the “PBM E-score” value stood at 0.0774.
Consider TAATAATA, for which the “PBM E-score” value was 0.0976.
For the sequence ATTGGTGC, the “PBM E-score” value was found to be 0.135.
For the sequence GCGGCGCA, the “PBM E-score” value stood at 0.0393.
In the case of GAACAAGA, the “PBM E-score” value is -0.0334.
Turning to ACTCGTCA, the “PBM E-score” value was 0.0193.
With CTTAGGGA, the “PBM E-score” value was -0.253.
As to AAGTTAGG, the “PBM E-score” value is -0.095.
As for AGTGTCAG, the “PBM E-score” value came out at 0.0138.
With ACTCCATC, the “PBM E-score” value is 0.213.
GGACCCTA: the “PBM E-score” value is -0.263.
Then GCTGCGGA, with -0.00642; and GTGTATCA, with 0.275; and CAGCACAC, with 0.0182.
In the case of ACAACAAG, the “PBM E-score” value stood at 0.0895.
As to ACGTGCAT, the “PBM E-score” value is -0.129.
Then CTAGCACA, with -0.107; and TTCGACAA, with -0.0885; and ACTTCCCC, with -0.157.
For the sequence CCCCAACG, the “PBM E-score” value is -0.156.
Consider CGAGTAAC, for which the “PBM E-score” value amounted to 0.139.
For the sequence CACAGCGC, the “PBM E-score” value came out at 0.185.
Take GTCCTAAC: the “PBM E-score” value was -0.0108.
Then CAATCGTA, with -0.029; and AAGGGGGG, with -0.192.
Then ACTAGGGC, with 0.0613; and CGCCGCCG, with 0.0529.
As to ATCCAAAG, the “PBM E-score” value worked out at 0.0856.
For ATGGATGC, the “PBM E-score” value was -0.0487.
For the sequence CAGTACTG, the “PBM E-score” value is 0.062.
Then ATTAACCG, with 0.165.
With GACTCTAC the figure was 0.135; with TACTGGAA, 0.153.
For the sequence CGGTCTAG, the “PBM E-score” value was found to be 0.158.
GGAGGGCA: the “PBM E-score” value turned out to be 0.0601.
Then AAAATACG, with 0.112; and CAATTTCA, with -0.249; and ATGGTAAA, with 0.103.
For CGGAATAA, the “PBM E-score” value was -0.0766.
